Assay results from paper PMC3566120.
Results are given in words; binding and its absence hold for the method and conditions named. Binding seen in cells or lysates may run through a third protein. Some binding calls cover weakened binding; strength is not graded here. Where a sequence is shown, tags or fusion partners need not be part of it.

Chains of the proteins cited; added tags and fusions are not shown.
UniProt P03496: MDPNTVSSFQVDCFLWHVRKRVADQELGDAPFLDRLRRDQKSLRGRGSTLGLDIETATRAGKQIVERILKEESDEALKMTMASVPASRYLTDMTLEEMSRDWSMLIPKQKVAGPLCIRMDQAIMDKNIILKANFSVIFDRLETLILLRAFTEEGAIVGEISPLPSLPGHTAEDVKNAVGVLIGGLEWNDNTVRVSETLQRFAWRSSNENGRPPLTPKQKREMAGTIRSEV

Assays:
[1] = biological target: T1, Myc-tagged wild-type hGBP1 (human guanylate-binding protein 1) (human) (UniProt P32455); experiment: co-IP
T1 sequence: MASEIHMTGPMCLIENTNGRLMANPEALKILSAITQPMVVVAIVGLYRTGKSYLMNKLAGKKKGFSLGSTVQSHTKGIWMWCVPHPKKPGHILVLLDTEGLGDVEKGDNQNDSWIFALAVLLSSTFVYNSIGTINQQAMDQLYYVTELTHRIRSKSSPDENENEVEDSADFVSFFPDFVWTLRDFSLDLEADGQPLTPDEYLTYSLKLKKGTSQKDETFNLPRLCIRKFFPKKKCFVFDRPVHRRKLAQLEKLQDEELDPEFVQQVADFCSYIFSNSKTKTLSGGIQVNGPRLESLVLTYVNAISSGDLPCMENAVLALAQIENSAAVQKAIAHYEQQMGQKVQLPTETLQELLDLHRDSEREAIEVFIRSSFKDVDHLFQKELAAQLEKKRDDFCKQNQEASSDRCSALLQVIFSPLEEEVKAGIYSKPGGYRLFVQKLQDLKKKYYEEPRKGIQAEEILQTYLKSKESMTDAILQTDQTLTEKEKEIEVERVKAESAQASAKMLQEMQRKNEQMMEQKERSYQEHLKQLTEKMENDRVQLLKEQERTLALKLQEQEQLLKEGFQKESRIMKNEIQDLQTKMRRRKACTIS

[2] = biological target: T2, hGBP1 fused to the N-terminal fragment of venus fluorescent protein (human) (UniProt P32455); experiment: split reporter
T2 sequence: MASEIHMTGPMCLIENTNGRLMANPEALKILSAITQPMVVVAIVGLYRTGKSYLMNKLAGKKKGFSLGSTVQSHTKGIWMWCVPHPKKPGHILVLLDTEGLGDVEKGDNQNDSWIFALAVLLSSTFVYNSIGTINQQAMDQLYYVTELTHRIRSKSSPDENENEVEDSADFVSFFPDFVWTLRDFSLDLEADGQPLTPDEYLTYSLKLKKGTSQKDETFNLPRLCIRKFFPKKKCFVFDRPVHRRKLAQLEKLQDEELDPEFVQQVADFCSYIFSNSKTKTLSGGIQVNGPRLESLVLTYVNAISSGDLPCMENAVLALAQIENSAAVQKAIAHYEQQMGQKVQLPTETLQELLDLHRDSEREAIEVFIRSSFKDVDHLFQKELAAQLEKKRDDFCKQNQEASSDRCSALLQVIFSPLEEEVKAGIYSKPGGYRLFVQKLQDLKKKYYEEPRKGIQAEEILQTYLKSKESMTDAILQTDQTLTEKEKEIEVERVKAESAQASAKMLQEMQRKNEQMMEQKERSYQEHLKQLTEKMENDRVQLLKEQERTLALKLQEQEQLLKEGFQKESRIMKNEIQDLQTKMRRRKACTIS

[3] = biological target: Flag-tagged viral matrix protein 1 (UniProt P03485); experiment: co-IP
[4] = biological target: Flag-tagged wild-type NS1 (nonstructural protein 1) of influenza A virus PR8 (influenza A virus A/Puerto-Rico/8/34 (H1N1; PR8)) (UniProt P03496); experiment: co-IP

## Flag-tagged viral matrix protein 1 (from UniProt P03485 1-252)
[1]
  binding: no binding

## Flag-tagged wild-type NS1 (nonstructural protein 1) of influenza A virus PR8 (from UniProt P03496 1-230)
[1]
  binding: binds

## NS1 fused to the C-terminal fragment of venus fluorescent protein (from UniProt P03496 1-230)
[2]
  binding: binds

B1: Myc-tagged wild-type hGBP1 (human guanylate-binding protein 1) (protein, UniProt P32455 1-592)
chain: MASEIHMTGPMCLIENTNGRLMANPEALKILSAITQPMVVVAIVGLYRTGKSYLMNKLAGKKKGFSLGSTVQSHTKGIWMWCVPHPKKPGHILVLLDTEGLGDVEKGDNQNDSWIFALAVLLSSTFVYNSIGTINQQAMDQLYYVTELTHRIRSKSSPDENENEVEDSADFVSFFPDFVWTLRDFSLDLEADGQPLTPDEYLTYSLKLKKGTSQKDETFNLPRLCIRKFFPKKKCFVFDRPVHRRKLAQLEKLQDEELDPEFVQQVADFCSYIFSNSKTKTLSGGIQVNGPRLESLVLTYVNAISSGDLPCMENAVLALAQIENSAAVQKAIAHYEQQMGQKVQLPTETLQELLDLHRDSEREAIEVFIRSSFKDVDHLFQKELAAQLEKKRDDFCKQNQEASSDRCSALLQVIFSPLEEEVKAGIYSKPGGYRLFVQKLQDLKKKYYEEPRKGIQAEEILQTYLKSKESMTDAILQTDQTLTEKEKEIEVERVKAESAQASAKMLQEMQRKNEQMMEQKERSYQEHLKQLTEKMENDRVQLLKEQERTLALKLQEQEQLLKEGFQKESRIMKNEIQDLQTKMRRRKACTIS
[3]
  binding: no binding
[4]
  binding: binds
